The full ranking holds about 18,000 sequences; the median of “TetR repression strength (sort-seq, GFP reporter)” is about 0.23, and the highest 2% start at about 0.68. The list shows a part of the results.

From a collection of fitness landscapes (doi:10.1038/s41467-024-54723-y) come the findings set out here.

For the test, the target named is TetR (class B, Tn10) (UniProt P04483). The experiment in a line: TetR repression strength (sort-seq, GFP reporter) (relative to tetO2 = 1); higher = stronger repression. The note with it: E. coli. An outline of the steps: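 Repression strength is the top bin index plus one minus the read-weighted mean bin, relative to the unaltered operator's value. A low-copy library in E. coli SIG10-MAX randomized eight operator positions between a constitutive promoter and sfGFP, with TetR expressed constitutively; cells grew 5 h at 37 °C in LB with 50 µg/mL chloramphenicol and 10^6 were FACS-sorted into 13 bins that were each Illumina-sequenced. Three independent transformations were averaged, keeping only members with ≥30 reads in all replicates and CV ≤0.5.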
Chain of UniProt P04483 (P04483 whole entry): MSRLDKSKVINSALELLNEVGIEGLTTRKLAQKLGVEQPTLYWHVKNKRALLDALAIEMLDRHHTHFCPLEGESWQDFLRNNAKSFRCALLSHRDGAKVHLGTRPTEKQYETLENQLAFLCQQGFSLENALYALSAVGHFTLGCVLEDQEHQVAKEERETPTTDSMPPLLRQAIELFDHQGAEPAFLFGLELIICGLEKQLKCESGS
For the sequence TCCCTAGCAGTCACGGAGA, the TetR repression strength was 0.243.
Sequence TCCCGGAAAGTAGAAGAGA displayed a TetR repression strength of 0.122.
TCCCCAGGAGTACACGAGA returned a TetR repression strength of 0.21.
Turning to TCCCCCTGAGTGATGGAGA, the TetR repression strength amounted to 0.222.
Under TCCCATTAAGTGATAGAGA stands 0.513; under TCCCGGCGAGTTACTGAGA, 0.179.
The value for TCCCAAGTAGTTCAGGAGA was 0.205; that for TCCCAATAAGTTCAAGAGA was 0.362.
Under TCCCATCTAGTACTTGAGA stands 0.302; under TCCCGGAAAGTCTTGGAGA, 0.0589.
On to TCCCAGAAAGTGAAAGAGA, for which the TetR repression strength is 0.207.
Under TCCCGTCTAGTGCAAGAGA stands 0.332; under TCCCCCTGAGTTGTCGAGA, 0.345.
TCCCTTAGAGTTCGTGAGA displayed a TetR repression strength of 0.286.
For TCCCCACGAGTGGGGGAGA, the TetR repression strength was 0.222.
The value for TCCCTGACAGTGCGGGAGA was 0.127; that for TCCCTAAGAGTGAGCGAGA was 0.294.
The sequence TCCCTAACAGTTACTGAGA registered a TetR repression strength of 0.297.
On to TCCCGGTCAGTCCGGGAGA, for which the TetR repression strength came out at 0.429.
The sequence TCCCTATGAGTTACAGAGA displayed a TetR repression strength of 0.164.
The value for TCCCATGTAGTCCATGAGA was 0.41; that for TCCCGGCCAGTGTTTGAGA was 0.272; that for TCCCGCGGAGTCGGAGAGA was 0.0978.
Under TCCCACATAGTTCTTGAGA stands 0.259; under TCCCGAATAGTAGCTGAGA, 0.376.
The value for TCCCAGGCAGTCGTAGAGA was 0.0886; that for TCCCCGCAAGTATCGGAGA was 0.157; that for TCCCGAGTAGTGTGGGAGA was 0.105.
The sequence TCCCTGGTAGTAGGTGAGA showed a TetR repression strength of 0.0497.
Consider TCCCGATTAGTGACGGAGA, for which the TetR repression strength is 0.0748.
Under TCCCGGGCAGTGGCGGAGA stands 0.318.
Under TCCCAGGAAGTCGGGGAGA stands 0.314; under TCCCCTTCAGTGTGTGAGA, 0.111; under TCCCACATAGTGTGCGAGA, 0.207.
Under TCCCACTGAGTGAGGGAGA stands 0.251.
On to TCCCATTGAGTGATAGAGA, for which the TetR repression strength turned out to be 0.536.
The value for TCCCAGTAAGTCTTAGAGA was 0.174; that for TCCCAACTAGTCGTAGAGA was 0.368; that for TCCCCTCGAGTGGAGGAGA was 0.146.
As to TCCCGTGCAGTCAACGAGA, the TetR repression strength was 0.326.
The sequence TCCCTAGGAGTCCATGAGA showed a TetR repression strength of 0.124.
The sequence TCCCAGCCAGTCACGGAGA showed a TetR repression strength of 0.204.
TCCCTAAGAGTTACCGAGA yielded a TetR repression strength of 0.355.
The value for TCCCAGATAGTGGTGGAGA was 0.217; that for TCCCAGCGAGTCATGGAGA was 0.228.
Under TCCCATCGAGTAGGTGAGA stands 0.14.
The sequence TCCCCTGGAGTTCTTGAGA yielded a TetR repression strength of 0.306.
The value for TCCCAATGAGTGAGTGAGA was 0.346; that for TCCCAACAAGTTAAGGAGA was 0.118; that for TCCCGTACAGTGATCGAGA was 0.283.
The value for TCCCGACTAGTTCATGAGA was 0.529; that for TCCCGGGGAGTTATGGAGA was 0.26.
The value for TCCCCTTTAGTTCAGGAGA was 0.113.
As for TCCCGGCCAGTGCTGGAGA, the TetR repression strength is 0.176.
Regarding TCCCGACTAGTGATTGAGA, the TetR repression strength was determined as 0.622.
Under TCCCGATCAGTCTGTGAGA stands 0.205; under TCCCTGGGAGTAAGGGAGA, 0.28; under TCCCGAGTAGTCGGAGAGA, 0.115.
In turn, TCCCACCGAGTTGTGGAGA displayed a TetR repression strength of 0.15.
In turn, TCCCAACAAGTGTAGGAGA yielded a TetR repression strength of 0.197.
As for TCCCTGGTAGTGGTAGAGA, the TetR repression strength stood at 0.203.
Under TCCCGTTTAGTGCAAGAGA stands 0.27; under TCCCTGGTAGTATGGGAGA, 0.359.
In turn, TCCCATGAAGTGTTGGAGA had a TetR repression strength of 0.587.
TCCCTCAGAGTTGGGGAGA displayed a TetR repression strength of 0.0346.
TCCCGTTGAGTGCGTGAGA registered a TetR repression strength of 0.144.
The value for TCCCGTGTAGTGGTCGAGA was 0.149; that for TCCCGGTAAGTGTTTGAGA was 0.246.
The value for TCCCAACTAGTCCAGGAGA was 0.362; that for TCCCCGGCAGTCTCGGAGA was 0.174; that for TCCCGTACAGTCAGTGAGA was 0.119.
Under TCCCGGGCAGTCGGAGAGA stands 0.331; under TCCCTCACAGTTTCGGAGA, 0.117.
On to TCCCGCTGAGTAGTGGAGA, for which the TetR repression strength amounted to 0.355.
The value for TCCCCGGAAGTCGAGGAGA was 0.00628; that for TCCCTTCGAGTACGTGAGA was 0.349; that for TCCCGAGGAGTGCAGGAGA was 0.322.
The value for TCCCCCACAGTGTTGGAGA was 0.0473; that for TCCCCGTAAGTACTAGAGA was 0.29.
For TCCCGTTTAGTTACGGAGA, the TetR repression strength was determined as 0.193.
The value for TCCCCGTGAGTGTTAGAGA was 0.318; that for TCCCTTGGAGTGCACGAGA was 0.097; that for TCCCAGACAGTGTAGGAGA was 0.444.
Under TCCCGGCGAGTACAGGAGA stands 0.248; under TCCCGTCTAGTGGCGGAGA, 0.29; under TCCCATAAAGTGCAGGAGA, 0.245.
TCCCTCCAAGTCGTGGAGA yielded a TetR repression strength of 0.316.
Consider TCCCTAACAGTTCTGGAGA, for which the TetR repression strength was 0.516.
In turn, TCCCTTTAAGTCGGTGAGA returned a TetR repression strength of 0.257.
The value for TCCCGTGAAGTGGCTGAGA was 0.131.
The value for TCCCAGGGAGTGCCAGAGA was 0.112; that for TCCCATGGAGTGGCCGAGA was 0.0889; that for TCCCTCCTAGTGTATGAGA was 0.544.
Sequence TCCCCCCGAGTGTGTGAGA had a TetR repression strength of 0.238.
The value for TCCCGGGGAGTGGTGGAGA was 0.427.
Under TCCCTCACAGTACTTGAGA stands 0.217; under TCCCCTCCAGTAATGGAGA, 0.183.
Under TCCCCCCTAGTGTCCGAGA stands 0.358.
For the sequence TCCCCGCGAGTTCGGGAGA, the TetR repression strength came to 0.492.
The value for TCCCAAGTAGTGGGTGAGA was 0.136; that for TCCCCCATAGTCTATGAGA was 0.298.
TCCCCCGAAGTTAGCGAGA displayed a TetR repression strength of 0.274.
